Results as given in the supplement of paper PMC12217912.
Some of the results follow. The full chains were built here from the parent and the listed change. Values near 0.05 are background.

B1: TEV protease; numbered along this chain (parent)
chain: MGESLFKGPRDYNPISSSICHLTNESDGHTTSLYGIGFGPFIITNKHLFRRNNGTLVVQSLHGVFKVKDTTTLQQHLVDGRDMIIIRMPKDFPPFPQKLKFREPQREERICLVTTNFQTKSMSSMVSDTSCTFPSGDGIFWKHWIQTKDGQCGSPLVSTRDGFIVGIHSASNFTNTNNYFTSVPKNFMELLTNQEAQQWVSGWRLNADSVLWGGHKVFMVKPEEPFQPVKEATQL

Variants of: B1
Assay: raw area under fraction-flipped curve 0-4 h after induction (AUC4h, not background-subtracted), DNA-recorder readout of cleavage of the substrate (dimensionless); higher = more cleavage of the substrate by the protease variant
Settings: temperature: 34 °C; time window: 0-4 h after rhamnose induction
Description: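 In vivo DNA recorder in E. coli TOP10(DE3) ΔrhaA at 34 °C. Each TEVp single-site mutant (parent TEVp 0) is paired with a single-site variant of the 7-mer TEVs (canonical ENLYFQ|S). The substrate sits between flexible linkers in a Bxb1-sfGFP-TEVs-SsrA fusion, so cleavage stabilises Bxb1 and speeds flipping of a recombination array, read by NGS. The value is the raw area under the fraction-flipped curve over 0-4 h after rhamnose induction (AUC4h), with ≥20 reads per time point. It is not background-subtracted; inactive controls average about 0.047.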
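Note: Bxb1 expression induced with 0.2% (w/v) L-rhamnose at OD600 near 0.5, cultures sampled hourly, flipped fraction per protease–substrate barcode pair counted by paired-end Illumina sequencing.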

Variant	area with substrate ENLYFQA	area with substrate ENLYFQC	area with substrate ENLYFQE	area with substrate ENLYFQF	area with substrate ENLYFQG	area with substrate ENLYFQI	area with substrate ENLYFQK	area with substrate ENLYFQL	area with substrate ENLYFQM	area with substrate ENLYFQN	area with substrate ENLYFQP	area with substrate ENLYFQQ	area with substrate ENLYFQR	area with substrate ENLYFQS	area with substrate ENLYFQT	area with substrate ENLYFQV	area with substrate ENLYFQW	area with substrate ENLYFQD	area with substrate ENLYFQH	area with substrate ENLYFQY
I167W	0.0593	0.0745	0.0467	0.0697	0.0684	0.0479	0.0606	0.0547	0.0571	0.0505	0.0692	0.0566	0.0549	0.0598	0.072	0.0587	0.0623			
H168W	0.0569	0.0619	0.0655		0.0667	0.0532	0.0495	0.0633	0.0663	0.058	0.0658	0.0649	0.0436	0.0622	0.0518		0.0573	0.0546	0.0602	0.0568
S169F	0.0697	0.0711		0.0675	0.0587	0.0441	0.06	0.0536	0.0592	0.0498		0.0632	0.0627	0.0643			0.0509	0.0592		0.0558
S169T	0.117	0.138			0.122	0.0658	0.0612	0.0596	0.0902			0.0813	0.0619	0.126	0.0613	0.0634	0.0693	0.0627	0.0831	
S171E	0.0534	0.0533		0.0558			0.058			0.081			0.0501	0.0622	0.0963	0.0615			0.0735	0.0517
F173A	0.0812	0.0941		0.0633		0.0654	0.0604	0.059	0.0736	0.0591		0.0693	0.0718	0.094	0.0732			0.0614		
N175F	0.0863	0.0822	0.0697	0.0726	0.075	0.061	0.0722	0.0603	0.0784			0.0567	0.0856	0.0868	0.0579	0.075	0.0907	0.0592	0.0668	
T176Y	0.082	0.0685		0.049	0.0896	0.0668	0.0449	0.0554	0.0502	0.053	0.0597	0.0531		0.0692	0.0604			0.0559		
N177A	0.104		0.0766	0.056	0.127	0.0624	0.074		0.109	0.0785		0.0738	0.0604	0.105	0.0654			0.0687		0.0832
N177H	0.0997				0.104	0.0496		0.0517	0.0699	0.0662	0.0607		0.0613	0.0898	0.0625	0.0538	0.0639	0.0772	0.0781	0.0655
F180L	0.139	0.12			0.0948				0.0713					0.119			0.0841	0.0859		
V183T	0.0947	0.0993		0.069	0.0913	0.0452	0.052	0.0542	0.0873	0.0811	0.0686		0.0578	0.104	0.0382	0.0626			0.104	0.0834
K185T	0.116	0.105			0.0709	0.067	0.0675	0.0548	0.0762	0.0838	0.0498		0.0602	0.102	0.0851	0.0575	0.0603	0.0785	0.0843	0.089
N186L	0.087	0.123				0.0581	0.0574	0.0568	0.0799	0.0739		0.054	0.0549	0.109	0.0598	0.0516	0.0679	0.0737	0.0804	0.0646
F187Q	0.0602	0.0866		0.0488	0.0742	0.0462	0.0548	0.0542	0.0602	0.0427	0.0587		0.0361	0.0646	0.0524	0.0431	0.0459		0.0439	0.0639
Q197G	0.0798	0.101		0.0651		0.0657	0.0644		0.0813		0.0454			0.091	0.0786	0.0404		0.069	0.0678	0.0774
Q198I	0.0841	0.124		0.0748	0.0793	0.0577	0.056	0.0512	0.087	0.0828	0.0479			0.0946	0.062	0.0904	0.0762			
S201K	0.102				0.101			0.0594	0.0978	0.0737	0.049		0.0775	0.104		0.0691				0.0704
G202A	0.0628	0.0727				0.0566	0.0584		0.0851	0.069	0.0578	0.0706	0.0611	0.0801	0.0632	0.05	0.0703		0.0631	0.0695
W203Y	0.132	0.0617		0.0508	0.0709	0.0566	0.0673			0.0725				0.0846			0.0617		0.0737	0.0601
R204T	0.119	0.159	0.0768		0.0969	0.0596	0.0632	0.0586	0.103	0.104			0.0682	0.111	0.065	0.0613	0.073	0.0827	0.111	0.0759
N206G	0.0983	0.109			0.097	0.059	0.0571	0.0623		0.0669			0.0541	0.1	0.0439		0.0788	0.0464		0.0645
N206H	0.109	0.0639				0.0629	0.0637	0.0374	0.0909	0.0716		0.0692	0.0574	0.0911	0.0568	0.0695	0.0654	0.0533		
W212K	0.0778	0.0753	0.0496		0.0702	0.0663	0.0567	0.0556	0.0567	0.0632			0.042	0.0721	0.0639		0.0542		0.072	0.0527
H215D	0.0707	0.0602			0.0656	0.0532	0.0438	0.0635	0.0644	0.0632			0.0634	0.0603			0.0504	0.063	0.0797	0.0807
